Test results from PubChem BioAssay (NCATS).
The inconclusive results got no clear call from the source; some entries with a clear call stand among them for comparison. Potencies of inconclusive entries are doubtful fits and often do not repeat. Calls of active or inactive are those of the source. Calls follow the shape of the dose curve; as a rule, active = well fitted curve in the direction sought with a large enough effect; inconclusive = small, poorly fitted or top-dose-only effect, or another doubt; inactive = no such curve, though single readings can be large; an effect the other way counts as inactive or inconclusive.

Legend:
[1] = biological target: Rap guanine nucleotide exchange factor 3 (Homo sapiens) (UniProt O95398); assay: Confirmatory qHTS for antagonist of cAMP-regulated guanine nucleotide exchange factor 3 (EPAC1) (AID 1645880); conditions: EPAC1 Rap1B-BODIPY-GDP exchange, fluorescence; activity, negative = inhibition: at 115 µM (top of the series); also: nearly all actives have a fitted effect of over 55% in size;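 as to activity, negative = inhibition: plate controls were DMSO only for no effect and full effect of the ATA control for full effect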
Sequence of UniProt O95398 (O95398 whole entry, looked up): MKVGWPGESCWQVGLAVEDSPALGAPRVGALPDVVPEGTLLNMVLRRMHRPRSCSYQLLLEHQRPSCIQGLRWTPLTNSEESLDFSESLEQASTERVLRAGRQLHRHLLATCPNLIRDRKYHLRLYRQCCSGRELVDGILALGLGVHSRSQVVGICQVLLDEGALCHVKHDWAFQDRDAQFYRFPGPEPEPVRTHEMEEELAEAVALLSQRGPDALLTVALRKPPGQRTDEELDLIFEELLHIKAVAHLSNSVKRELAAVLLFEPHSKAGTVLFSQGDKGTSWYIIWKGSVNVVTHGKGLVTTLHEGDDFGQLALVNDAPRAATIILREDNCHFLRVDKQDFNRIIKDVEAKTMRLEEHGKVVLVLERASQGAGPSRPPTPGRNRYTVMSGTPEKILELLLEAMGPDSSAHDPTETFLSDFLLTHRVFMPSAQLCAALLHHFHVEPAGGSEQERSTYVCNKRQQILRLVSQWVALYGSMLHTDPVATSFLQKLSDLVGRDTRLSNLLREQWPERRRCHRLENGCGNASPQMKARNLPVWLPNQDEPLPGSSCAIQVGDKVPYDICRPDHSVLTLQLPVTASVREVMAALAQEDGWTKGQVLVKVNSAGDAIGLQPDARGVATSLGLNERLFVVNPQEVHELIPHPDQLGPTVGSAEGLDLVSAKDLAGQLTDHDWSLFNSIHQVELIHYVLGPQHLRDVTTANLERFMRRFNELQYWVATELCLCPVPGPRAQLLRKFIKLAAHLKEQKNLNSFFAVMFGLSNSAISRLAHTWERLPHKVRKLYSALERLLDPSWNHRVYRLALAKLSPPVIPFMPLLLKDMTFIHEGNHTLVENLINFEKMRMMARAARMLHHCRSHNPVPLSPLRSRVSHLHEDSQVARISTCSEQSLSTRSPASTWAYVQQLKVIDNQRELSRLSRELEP
Procedure, shortened: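 Released BODIPY-GDP fluoresces less than Rap1-bound BODIPY-GDP; the signal is followed at 480/540 nm at 5-min intervals over 30 min, after 5 min at room temperature. Reactions contain 100 nM EPAC1, 250 nM RAP1B-BODIPY-GDP and 50 uM GDP; results are normalized to ATA and DMSO.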

[2] = biological target: Rap guanine nucleotide exchange factor 3 (Homo sapiens) (UniProt O95398); assay: Counterscreen qHTS for agonist of cAMP-regulated guanine nucleotide exchange factor 3 (EPAC1) (AID 1645889); conditions: EPAC1 Rap1B-BODIPY-GDP exchange, fluorescence; activation: at 154 µM (top of the series) unless noted; also: nearly all actives have a fitted effect of over 40% in size; as to activation: % of control where 0% means no effect
Procedure, shortened: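 Rap1B–BODIPY-GDP (250 nM) with 50 uM GDP; compounds pin-transferred to 9.74 nM–152 uM final (activator) or from 7.32 nM upwards (inhibitor). Fluorescence Ex/Em 480/540 nm read at 5 and 30 min, then after adding cAMP or buffer, at room temperature.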
Potency is read from the fitted curve at half-maximal effect; tags tell the direction and shape of the fitted curve.

| SMILES | Potency [1] | activation [2] | Potency [2] |
| --- | --- | --- | --- |
| Cc1c(C)c2ccc(OCC(=O)Nc3ccc(S(N)(=O)=O)cc3)c(C)c2oc1=O | inconclusive: 37.9 µM [inhibitor, partial curve] | inconclusive: 35.6% [activator] | – |
| CCCN1CCN(c2ncnc3sc(C(=O)Nc4ccc(OC(F)(F)F)cc4)c(C)c23)CC1 | inconclusive: 47.8 µM [inhibitor, partial curve, poor fit] | – | inconclusive: 12.6 µM [activator, single point] |
| Cc1ccc(C(=O)NCCCNC(=O)c2ccco2)cn1 | inactive | inconclusive: 38.1% [activator] | – |
| CN(CC(=O)Nc1cccc(F)c1)C(=O)c1cccc(S(=O)(=O)N2CC3(C)CC2CC(C)(C)C3)c1 (configuration not stated) | inconclusive: 25.1 µM [inhibitor, partial curve] | – | inconclusive: 15.8 µM [activator, single point] |
| Cc1ccc2[nH]cc(C(c3ccccc3)c3ccc(Cl)s3)c2c1 (configuration not stated) | inconclusive: 84.9 µM [inhibitor, partial curve] | – | inconclusive: 35.5 µM [activator, partial curve] |
| N#C/C(=C(/O)C(Cl)(Cl)Cl)c1nc2ccccc2[nH]1 | inactive | – | inactive |
| O=C(Nc1nc(-c2ccccc2)cs1)c1ccccc1NS(=O)(=O)c1ccc(F)cc1 | active: 19 µM | – | inconclusive: 11.2 µM [activator, partial curve, poor fit] |
| CCOC(=O)C1=C(C)NC(C)=C(C(=O)OCC)C1c1cccc([N+](=O)[O-])c1 | inconclusive: 39.8 µM [inhibitor, partial curve] | – | inconclusive: 0.0708 µM [activator, full curve, poor fit] |
| O=C(O)CCn1cc(C2CC(c3ccccc3)=NN2c2ccccc2)c(-c2ccccc2)n1 (configuration not stated) | inactive | – | inactive |
| CCn1c(=O)c(C(=O)Nc2ccccc2S(N)(=O)=O)c(O)c2ccccc21 | inconclusive: 84.9 µM [inhibitor, partial curve] | – | inconclusive: 4.47 µM [activator, full curve, poor fit] |
| COc1cccc(OC)c1OC(=O)/C=C/c1ccc(C)o1 | inactive | – | inconclusive: 0.282 µM [activator, full curve, poor fit] |
| C[C@@H]1CC=C[C@@H]2[C@H]1C(=O)N(Cc1ccccc1)[C@H]2c1ccccc1Br | inconclusive: 42.6 µM [inhibitor, partial curve, poor fit] | – | inactive |
| Cc1cccc(NC(=O)c2cc(S(=O)(=O)N(C)c3ccc(F)cc3)ccc2Cl)n1 | inactive | – | inactive |
| CCOc1ccc2nc(NC(=O)CSc3nc(-c4ccccc4)c(C#N)c(=O)[nH]3)sc2c1 | active: 56.2 µM | inconclusive: 43.5% [activator] [at 30.8 µM] | – |
| CC(C)CCn1c(Oc2ccccc2Cl)nc2c1c(=O)n(C)c(=O)n2C | inconclusive: 47.8 µM [inhibitor, partial curve] | inconclusive: 31.1% [activator] | – |
| Cc1nnc(-c2ccco2)c2cn(-c3cccc(Br)c3)nc12 | inconclusive: 75.7 µM [inhibitor, partial curve] | – | inactive |
| CCc1ccccc1NC(=O)c1cc2sc(Cl)cc2n1CC | inactive | – | inconclusive: 10 µM [activator, full curve, poor fit] |
| O=C(c1[nH]c(C(F)(F)F)nc1-c1ccccc1)N1CCC(C(O)(c2ccccc2)c2ccccc2)CC1 | inconclusive: 60.1 µM [inhibitor, partial curve, poor fit] | – | inconclusive: 11.2 µM [activator, full curve, poor fit] |
| COc1cc2cnc(-c3ccccc3)c(C(=O)c3ccc(F)cc3)c2cc1OC | inactive | – | inconclusive: 1.12 µM [activator, full curve, poor fit] |
| Cc1ccc(-c2nc3ccc(Br)cn3c2Cc2ccccc2C(F)(F)F)cc1 | active: 84.9 µM | – | inactive |
| NC(=O)c1c(NC(=O)CSc2nnc(-c3ccco3)n2N)sc2c1CCCC2 | inconclusive: 33.8 µM [inhibitor, full curve] | – | inconclusive: 0.126 µM [activator, full curve, poor fit] |
| COc1cccc(C(=O)Nc2cccc(C(=O)OCc3cc(=O)n4c(C)csc4n3)c2)c1 | inconclusive: 47.8 µM [inhibitor, partial curve] | inconclusive: 31.9% [activator] | – |
| COCCCn1c(=O)/c(=C\c2ccccc2OC(C)C)s/c1=C(/C#N)C(=O)Nc1ccc(C(=O)O)cc1 | inconclusive: 39.8 µM [inhibitor, partial curve] | – | inconclusive: 15.8 µM [activator, partial curve, poor fit] |

| SMILES | Potency [1] | activation [2] | Potency [2] |
| --- | --- | --- | --- |
| COc1ccccc1N1CSC2=C(C#N)C(c3ccc(SC)cc3)CC(=O)N2C1 (configuration not stated) | inconclusive: 22.4 µM [inhibitor, full curve] | – | inconclusive: 0.355 µM [activator, partial curve, poor fit] |
| COC(=O)c1ccc2nc(-c3ccc(F)cc3)c(Cc3ccc(C)cc3)n2c1 | inconclusive: 35.5 µM [inhibitor, partial curve, poor fit] | inconclusive: 54.7% [activator] [at 30.8 µM] | – |
| Cc1ccc(N(CCC#N)C(=O)COC(=O)c2ccccc2SCC(=O)N2CCCC2)cc1 | inactive | – | inconclusive: 0.0398 µM [activator, full curve, poor fit] |
| CC(=O)Nc1ccc(S(=O)(=O)Nc2nc3ccccc3nc2-n2ccc(=NC(=O)c3ccccc3)cc2)cc1 | inconclusive: 63.1 µM [inhibitor, partial curve, poor fit] | inactive: 5.94% [at 30.8 µM] | – |
| COc1ccc(N2C(=O)CSC23C(=O)N(Cc2cccc(C(F)(F)F)c2)c2ccccc23)cc1 (configuration not stated) | inconclusive: 95.3 µM [inhibitor, partial curve, poor fit] | – | inactive |
| CC/C(=N/NC(=O)c1ccc2c(c1)OCO2)c1ccccc1O | active: 15.1 µM | – | inconclusive: 50.1 µM [activator, partial curve, poor fit] |
| CCOc1c(O)ccc(/C=C2\SC(=S)NC2=O)c1[N+](=O)[O-] | active: 37.9 µM | – | inactive |
| Cc1ccc(OCC(=O)Nc2ccc(N3CCCC3)cc2)cc1C | inconclusive: 84.9 µM [inhibitor, partial curve, poor fit] | – | inactive |
| Cc1cccc(Nc2nnc(SC/C(O)=C(\C#N)c3nc4ccccc4[nH]3)s2)c1 | inconclusive: 53.6 µM [inhibitor, partial curve, poor fit] | – | inconclusive: 7.94 µM [activator, full curve, poor fit] |
| CC(C)(C)OC(=O)N1CCN(C(=O)c2[nH]c(C(F)(F)F)nc2-c2ccccc2)CC1 | inactive | – | inactive |
| CCNC(=O)COc1ccc(/C=C2\COc3ccccc3C2=O)cc1OC | inactive | – | inconclusive: 0.0631 µM [activator, full curve, poor fit] |
| O=C(CSc1nc(O)cc(=O)n1-c1ccccc1)Nc1ccc2c3c(cccc13)CC2 | inconclusive: 1 µM [inhibitor, partial curve, poor fit] | inconclusive: 55.4% [activator] [at 30.8 µM] | – |
| CCn1c(=O)c2sccc2n2c(CCCC(=O)N3CCN(c4cc(Cl)ccc4C)CC3)nnc12 | inconclusive: 95.3 µM [inhibitor, partial curve, poor fit] | inconclusive: 43.6% [activator] | – |
| CCn1c(SCC(=O)N/N=C/C=C/c2ccco2)nnc1-c1ccccc1 | inconclusive: 84.9 µM [inhibitor, single point] | inconclusive: 31.8% [activator] | – |
| Cc1cc(O)c(C(=O)/C=C/c2cccc([N+](=O)[O-])c2)c(=O)o1 | active: 33.8 µM | inconclusive: 28.5% [activator] | – |
| c1ccc(-c2nc(C3CCCCC3)c3ccccc3n2)cc1 | inactive | inactive: 34% [at 30.8 µM] | – |
| NC(=O)c1sc(=S)n2c1[nH]c(=O)c1sccc12 | active: 16.9 µM | – | inactive |
| O=S1(=O)CCO[C@H]2Cc3ccccc3[C@H]2N1Cc1ccc(Cl)cc1 | inactive | – | inconclusive: 2.82 µM [activator, full curve, poor fit] |
| CCN(CC(=O)Nc1c(F)cccc1F)C(=O)CCc1nc2sc3c(c2c(=O)[nH]1)CCCC3 | active: 75.7 µM | – | inconclusive: 0.891 µM [activator, full curve, poor fit] |
| Cc1occc1-c1nnc(SCC(=O)c2cc3ccccc3oc2=O)o1 | inconclusive: 39.8 µM [inhibitor, partial curve] | inconclusive: 34.5% [activator] [at 30.8 µM] | – |
| O=C1CCCC2=C1CC(C(=O)OCc1ccccc1)C(=O)N2Cc1ccccc1 (configuration not stated) | inconclusive: 8.91 µM [inhibitor, partial curve, poor fit] | – | inconclusive: 0.01 µM [activator, full curve, poor fit] |
| Cc1[nH]c2ccc(C(=O)OC(C)C(=O)N(C)c3ccccc3)cc2c1C (configuration not stated) | inconclusive: 53.6 µM [inhibitor, partial curve, poor fit] | – | inactive |
| COCCCn1c(=O)/c(=C\c2ccc(OC(F)F)c(OC)c2)s/c1=C(/C#N)C(N)=O | inactive | – | inactive |
